According to paper doi:10.1101/2020.10.06.326603 (bioRxiv, 2020):
Substitutions are numbered along the chain they refer to. Names and notes keep the numbering of the source.

T1: IscS S10Q, H247P, Q248L variant (E. coli, UniProt P0A6B7 1-404, S10Q | H247P | Q248L)
T1 sequence: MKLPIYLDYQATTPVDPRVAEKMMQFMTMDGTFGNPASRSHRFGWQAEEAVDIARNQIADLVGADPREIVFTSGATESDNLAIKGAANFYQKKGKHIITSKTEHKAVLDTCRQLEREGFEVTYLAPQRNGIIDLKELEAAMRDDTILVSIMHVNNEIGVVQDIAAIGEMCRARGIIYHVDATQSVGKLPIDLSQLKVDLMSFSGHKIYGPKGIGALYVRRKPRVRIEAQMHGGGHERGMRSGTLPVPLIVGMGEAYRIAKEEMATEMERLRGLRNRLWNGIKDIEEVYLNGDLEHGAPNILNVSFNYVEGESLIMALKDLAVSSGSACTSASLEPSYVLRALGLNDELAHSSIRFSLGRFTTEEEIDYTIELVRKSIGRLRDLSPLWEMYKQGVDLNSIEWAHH

B1: Escherichia coli IscS (native cysteine desulfurase) (enzyme, E. coli)
chain: T1 sequence with Q10S, P247H, L248Q
B2: IscS H247P Q248L variant (enzyme, E. coli)
chain: T1 sequence with Q10S
B3: IscS S10Q variant (enzyme, E. coli)
chain: T1 sequence with P247H, L248Q
B4: E. coli scaffold protein IscU (natural protein, UniProt P0ACD4 1-128, looked up)
chain: MAYSEKVIDHYENPRNVGSFDNNDENVGSGMVGAPACGDVMKLQIKVNDEGIIEDARFKTYGCGSAIASSSLVTEWVKGKSLDEAQAIKNTDIAEELELPPVKIHCSILAEDAIKAAIADYKSKREAK

How the values were obtained:
[1] = target: the molecule itself; experiment: cell-based or functional assay
SEC = target: the molecule itself; experiment: SEC
[2] = target: the molecule itself
[3] = target: T1, IscS S10Q, H247P, Q248L variant; experiment: SEC

Row | binding result [3] | Binder | cysteine desulfurase activity under standard conditions (kcat) [1] [s⁻¹] | stoichiometry N (SEC) | Kd [2] [nM]
1 |  | B1 | 0.137 |  | 
2 |  | B2 | 0.0683 | 2 | 1400
3 |  | B3 | 0.0317 | 2 | 1000
4 | binds | B4 |  |  | 
